Reference: publication PMC4336329 (PLoS ONE, 2015)
The campaign covered roughly 310,000 compounds. About 2,200 (0.71%) showed an effect of 50% or more. The effect is printed as a negative number. The list shows a part of the results.

These molecules were tested against human ether-à-go-go-related gene (hERG) potassium channel (human, UniProt Q12809) (assay: primary screen, population patch clamp on CHO cells stably expressing hERG).
human ether-à-go-go-related gene (hERG) potassium channel, sequence (Q12809 whole entry, looked up): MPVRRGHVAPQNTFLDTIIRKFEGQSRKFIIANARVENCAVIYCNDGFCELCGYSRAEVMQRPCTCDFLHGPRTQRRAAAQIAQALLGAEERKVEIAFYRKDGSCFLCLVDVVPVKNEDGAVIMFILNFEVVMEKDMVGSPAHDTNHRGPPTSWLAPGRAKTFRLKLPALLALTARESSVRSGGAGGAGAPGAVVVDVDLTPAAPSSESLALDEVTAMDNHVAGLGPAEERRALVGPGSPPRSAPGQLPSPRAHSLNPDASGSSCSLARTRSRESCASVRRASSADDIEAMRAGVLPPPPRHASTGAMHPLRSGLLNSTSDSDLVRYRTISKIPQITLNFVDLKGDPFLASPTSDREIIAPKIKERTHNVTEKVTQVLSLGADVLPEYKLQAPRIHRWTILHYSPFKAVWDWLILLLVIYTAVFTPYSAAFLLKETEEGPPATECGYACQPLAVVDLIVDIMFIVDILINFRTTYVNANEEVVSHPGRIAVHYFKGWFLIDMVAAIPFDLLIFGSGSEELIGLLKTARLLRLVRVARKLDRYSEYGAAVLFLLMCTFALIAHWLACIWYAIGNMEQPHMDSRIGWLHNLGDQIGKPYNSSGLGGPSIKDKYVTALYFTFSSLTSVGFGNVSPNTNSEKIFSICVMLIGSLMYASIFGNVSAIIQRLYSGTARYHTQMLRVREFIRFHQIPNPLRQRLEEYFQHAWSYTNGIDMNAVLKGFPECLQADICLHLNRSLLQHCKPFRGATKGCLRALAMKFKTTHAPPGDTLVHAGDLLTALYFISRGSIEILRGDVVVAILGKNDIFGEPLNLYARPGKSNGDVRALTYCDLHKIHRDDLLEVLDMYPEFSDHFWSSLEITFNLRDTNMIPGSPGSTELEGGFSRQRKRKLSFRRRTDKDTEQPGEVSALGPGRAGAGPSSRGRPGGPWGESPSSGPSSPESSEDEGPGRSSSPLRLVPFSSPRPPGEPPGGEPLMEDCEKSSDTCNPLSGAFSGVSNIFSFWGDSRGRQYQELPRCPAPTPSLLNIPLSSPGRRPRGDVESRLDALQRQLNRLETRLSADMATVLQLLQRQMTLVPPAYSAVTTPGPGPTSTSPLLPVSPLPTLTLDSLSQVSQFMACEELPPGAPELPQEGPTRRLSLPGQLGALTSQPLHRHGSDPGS

Structure (SMILES)	hERG current change (%, negative = inhibition) at 1uM [%]
Cc1nc2nc(C)c(NS(=O)(=O)c3ccc4c(c3)CCCC4)c(=O)n2[nH]1	13.1
CCCNC(=O)Nc1cc(OC)c(OC)cc1Cc1nccc2cc(OC)c(OC)cc12	12.8
Cc1cc(O)c(C(C)C)cc1NC(=O)Nc1cccc2ccccc12	13.8
Cc1cccc(NS(=O)(=O)c2c(C)n[nH]c2C)c1	9.77
O=C(C1=C[C@@H](c2ccc(Br)cc2)C[C@@H](OCCCCO)O1)N1CCOCC1	9.49
Cc1ccc(C(=O)Nc2cccc([N+](=O)[O-])c2)cc1S(=O)(=O)Nc1ccc(NC(=O)c2ccccc2)cc1	-0.104
O=C(Nc1ccccc1Cl)c1cccc(NC(=O)C2C3CC4OC(=O)C2C4C3)c1 (centres unmarked)	13.2
Cc1cccc2cc(CN(Cc3cccs3)S(=O)(=O)c3ccc4c(c3)OCCO4)c(=O)[nH]c12	8.3
O=C(Nc1cc(SCCO)cc([N+](=O)[O-])c1)c1ccco1	6.6
Cc1ccc(C(=O)CSc2ccc(-c3cccnc3)nn2)cc1	7.54
CSc1nc2c(c(C(F)(F)F)n1)CC(C)CC2 (centres unmarked)	15
Cc1cc2c(cc1S(=O)(=O)N(C)c1ccccc1)NC(=O)CO2	14.2
COc1ccc(C(=O)N2CCc3cc4c(cc3C2C)OCCCO4)cc1 (centres unmarked)	7.69
CCCCCC/C=C/c1ccc(OC)c([C@H]2[C@H]3C=CC[C@@H](C)[C@@H]3C(=O)N2Cc2ccccc2)c1	10.9
CC[C@H]1C2C[C@H]3[C@@H]4N(C)c5ccccc5C45C[C@H](C2[C@H]5O)N3[C@@H]1O (some centres unmarked)	-13.1
CCOC(=O)N1CCN(C(=O)CN(c2cccc(C(F)(F)F)c2)S(C)(=O)=O)CC1	-13.1
CS(=O)(=O)c1ccccc1C(=O)Nc1ccc(-c2nc3ccccc3o2)cc1	20.8
Brc1ccc(OCc2nc3ccccc3[nH]2)cc1	17.5
Cc1sc2ncnc(N3CCC(C(=O)NNC(=O)COc4cccc(C(F)(F)F)c4)CC3)c2c1C	8.66
C#CCn1c(O)c(N=NC(=O)CNC(=O)/C=C/c2ccccc2)c2ccccc21	2.37
COc1ccc(NC(=O)NNS(=O)(=O)c2cc(C)ccc2C)cc1OC	10.2
COc1ccccc1C(=O)NCCC(=O)N1CC=C(c2ccccc2)CC1	3.48

Structure (SMILES)	hERG current change (%, negative = inhibition) at 1uM [%]
O=C(O)CSCNC(=O)CC12CC3CC(CC(C3)C1)C2	10.9
CCN(CC(=O)Nc1ccc(NC(C)=O)cc1)C(=O)c1ccc(=O)[nH]c1	7.6
O=C(c1ccc(Cl)cc1)N1CCOc2ccccc21	12.3
O=C(c1ccc2c3c(cccc13)CC2)C1CCCN(C(=O)c2ccc(=O)[nH]c2)C1 (centres unmarked)	9.4
NC(=O)C1CCCN(C(=O)c2cccc(S(=O)(=O)N3CCCCCC3)c2)C1 (centres unmarked)	15.5
CCC(C)N=Cc1c(O)n(-c2ccccc2)c(=O)[nH]c1=O (centres unmarked)	8.89
CCc1nnc(NC(=O)CSc2nnc(CNC(=O)c3ccccc3F)n2C)s1	17
CSc1ccc(CCNC(=O)c2cc(C)nn2-c2ccccc2)cc1	3.73
COC(=O)c1cc(C)[nH]c2c(C)cc3nc4ccccc4c3c12	15.7
CCN(CC)S(=O)(=O)c1ccc(N/N=C(\C)c2ccc3c(c2)OCO3)c([N+](=O)[O-])c1	14
O=C(C1=C[C@@H](C2CC2)C[C@@H](OCc2ccc(CO)cc2)O1)N1CCOCC1	16.4
COc1ccc(NC(=O)C2=CC(c3ccc(OC)cc3)=NS(=O)(=O)N2C)cc1	8.2
Cc1cc(Br)ccc1NC(=S)NC1CCCC1	14.3
O=C(O)C1CN(c2nc(Cl)ccc2[N+](=O)[O-])C1	13.1
S=C(NCc1ccco1)Nc1ccc(Oc2ccccc2)cc1	5.98
CCc1ccc(C(=O)NNC(=O)CN2C(=O)NC(CC)(c3ccccc3)C2=O)cc1 (centres unmarked)	1.17
O=C(OCc1nc2ccccc2s1)C1CCN(S(=O)(=O)c2cccs2)CC1	-2.2
Cc1ccc(C(=O)Nc2cccnc2)cc1[N+](=O)[O-]	14.1
O=C(c1ccc(Oc2ccc(C(F)(F)F)cn2)cc1)N1CCN(c2ccccc2)CC1	-4.18
CCOC(=O)c1cc(NC(=O)Nc2nccs2)c(C)nc1C	12.8
Cc1ccc(N=C2C(=O)Nc3ccc(C)c(Br)c32)cc1	16.4
Cc1cc(N)n(-c2ccccc2C)n1	-4.81

Structure (SMILES)	hERG current change (%, negative = inhibition) at 1uM [%]
Cc1cc(C(=O)Nc2ccc(C)c(S(=O)(=O)N3CCOCC3)c2)c(C)o1	8.83
Cn1c(N)c(C(=O)COC(=O)c2cccc(S(=O)(=O)N3CCCCC3)c2)c(=O)n(C)c1=O	12.8
CCN1CCN(Cc2nc3cc(NC(=O)COc4ccc([N+](=O)[O-])cc4)ccc3n2C)CC1	8.57
COc1ccccc1CNC(=O)c1cccnc1	14.2
N=C1CCC(=N)c2c1c(O)c1ccccc1c2O	9.66
COc1ccc(CCc2nnc(N)s2)cc1OC	8.63
O=C(NC1CCCCC1)C1c2ccccc2C(=O)N1Cc1ccc2c(c1)OCO2 (centres unmarked)	10.7
Cc1nc(CN2CCN(C(=O)CCc3nnc(Cc4c[nH]c5ccccc45)o3)CC2)cs1	21.2
COc1ccc(CCN2CC(C(=O)NCc3c(C)n[nH]c3C)CCC2=O)cc1 (centres unmarked)	6.9
CCCCCCSc1cc(-c2nc3ccc(Cl)cn3c2NC2CCCCC2)ccc1OC.O=C(O)C(F)(F)F	5.78
COc1ccc(NS(=O)(=O)c2ccc(OCC(=O)N3CCN(C)CC3)cc2)cc1Cl	2.02
Cc1c(C(=O)N2C[C@@H](C)O[C@@H](C)C2)oc2c(F)cccc12	13.5
O=C(Cn1cc2c(n1)CCCC2)Nc1ccccc1Br	7.65
Cc1ccc(S(=O)(=O)Cn2nnnc2C(C(C)C)N2CCN(C(=O)c3ccco3)CC2)cc1.Cl (centres unmarked)	3.27
Cc1ccccc1CNC(=O)CCNS(=O)(=O)c1ccc(OC(F)(F)F)cc1	2.24
COc1ccc(OCCCN(C)Cc2ccccc2)cc1.O=C(O)C(=O)O	-6.95
COC(=O)C1=C(C)N(CCc2ccc(OC)c(OC)c2)C(=O)C1	15.2
O=C(COC(=O)c1ccccc1Nc1ccccc1)c1ccccc1	10.5
COc1ccc(CCN2C(=O)c3[nH]nc(-c4ccccc4O)c3C2c2ccccc2)cc1OC (centres unmarked)	15.5
S=C1NNC2(NN1)C1CC3CC(C1)CC2C3	12.4
CC(C)(C)Nc1c2ccccc2nc2ccccc12	-39
O=C(N/N=C/c1ccc(Br)s1)c1ccncc1	2.97

Structure (SMILES)	hERG current change (%, negative = inhibition) at 1uM [%]
O=C(CN1CCN(S(=O)(=O)c2ccc(Br)cc2)CC1)c1ccc(O)c(O)c1	-9.72
CS(=O)(=O)NC1c2cccc3cccc(c23)C1N1CCOCC1 (centres unmarked)	12.1
CCCCCCCCCCCCC(NC(C)=O)(C(=O)OCC)C(=O)OCC	12.5
COc1cccc(C(=O)N2CCN(S(=O)(=O)Cc3ccccc3)CC2)c1	9.27
COc1ccc(C(=O)NC(=S)Nc2ccc3oc(=O)ccc3c2)cc1OC	11.5
CCOC(=O)c1cnn(-c2ccccc2)c1-n1cccc1C(=O)C(=O)Nc1ccccc1	5.82
O=[N+]([O-])c1cccc(N(CC(O)CN2CCCCC2)S(=O)(=O)c2ccccc2)c1 (centres unmarked)	-24.2
O=C(CNC(=O)c1ccc(Br)o1)Nc1cccc(S(=O)(=O)N2CCCC2)c1	4.27
NS(=O)(=O)c1ccc(CCNC(=O)C(=O)NCC2OCCN2S(=O)(=O)c2ccc(Cl)cc2)cc1 (centres unmarked)	13.4
CN(C)c1cc[n+](CC(=O)Nc2cc(C(F)(F)F)ccc2Cl)cc1.[Cl-]	6.61
CCCCn1c(O)c(C(C)=NCc2ccco2)c(=O)[nH]c1=O	8.27
C=CC1CN2CCC1CC2c1[nH]c2ccccc2c1CCO (centres unmarked)	-1.01
COc1ccc(NC(=O)[C@@H](NC(=O)N2C[C@H]3C[C@@H](C2)c2cccc(=O)n2C3)C(C)C)cc1	8.5
O=C1N=C(N2CCCC2C(=O)O)S/C1=C\c1ccco1 (centres unmarked)	20.8
Cc1cccc(OCC(=O)NCc2ccncc2)c1C	4.76
CCOC(=O)c1c(N)sc2c1CCC1C(=O)N(C3CCCCC3)C(=O)C21 (centres unmarked)	7.3
CC(=O)N/N=C(\C)CC(=O)NC(C)(C)C	10.2
Cc1cc(NC(=O)CCCN2C(=O)c3cccnc3C2=O)ccc1Br	2.29
Cc1cccc(-n2nnnc2-c2cnccc2C(F)(F)F)c1C	12.9
CC1CC(C)CN(CCCNC(=O)c2cn(C)c3ccc(S(=O)(=O)N4CCCC4)cc3c2=O)C1 (centres unmarked)	5.91
